In PubChem BioAssay (NCATS):
The inconclusive results got no clear call from the source; some entries with a clear call stand among them for comparison. No potency is given beside an inconclusive call; the fits are too rough. Activity calls are given as the source filed them. The call rests on the fitted dose curve; in most records, active means well fitted inhibition curve with a large enough effect; inconclusive means small, poorly fitted or top-dose-only effect; inactive means flat fitted curve, though single readings scatter.

target: Calcium and integrin-binding protein 1 (Homo sapiens) (UniProt Q99828); assay: Primary qHTS for Identification of Calcium Integrin Binding Protein 1 (CIB1) Competitor (AID 1508620); details: CIB1-GST / FITC-alphaIIb peptide fluorescence polarization; series mostly up to 114 µM; activity change, negative = inhibition: at the top concentration;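 on activity change, negative = inhibition: GST tagged CIB1 binding a fluorescein labelled alphaIIb integrin peptide tracer; top concentration of the series differs between compounds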
Outline: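 Fluorescence polarization competition: CIB1-GST (1 uM final) preincubated with compound 15 min at room temperature, then FITC-labeled alphaIIb peptide (100 nM final) added for another 15 min. Polarization read at Ex 480/Em 540.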
On the % scale 0 is the no-effect control and ±100 the full control effect; potency means the concentration at half of the fitted maximal effect; tags describe the fitted curve by direction and shape.

Sequence of UniProt Q99828 (Q99828 whole entry, looked up): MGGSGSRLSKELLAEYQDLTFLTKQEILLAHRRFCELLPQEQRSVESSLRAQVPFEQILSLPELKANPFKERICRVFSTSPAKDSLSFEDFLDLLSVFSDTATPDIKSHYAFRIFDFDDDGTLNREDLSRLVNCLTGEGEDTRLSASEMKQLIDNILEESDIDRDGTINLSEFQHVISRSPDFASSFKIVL

With `Cc1ccn2c(Nc3ccc4c(c3)OCO4)c(-c3ccccn3)nc2c1` as the molecule, how does the Potency read?
Its Potency is inconclusive [inhibitor, partial curve, poor fit].

`COc1cccc(CNc2ccc(S(=O)(=O)Nc3nccs3)cc2)c1O` was tested. Which “activity change, negative = inhibition” value did it give?
The value was inactive: -18.2%.

With `O=S(=O)(Nc1ccc(O)c2ncccc12)c1ccccc1F` as the molecule, how does the Potency read?
Its Potency is inconclusive [inhibitor, single point].

`CC(=O)NC(C)c1cc(Cl)c2cccnc2c1O` (stereo unspecified) was tested. Which Potency did it give?
Its Potency is inconclusive [inhibitor, partial curve, poor fit].

Which Potency does the source give for `Cc1cc2c(cc1C1(c3ccc(C(=O)O)cc3)CC1)C(C)(C)CCC2(C)C` here?
The Potency was inconclusive [inhibitor, partial curve, poor fit].

For `CN(CC(=O)O)c1ncnc2ccc(-c3ccc4c(c3)OCO4)cc12`, which “activity change, negative = inhibition” value is on record?
Its value is inactive: -6.89%.

With `COc1cc(NS(=O)(=O)c2ccc([N+](=O)[O-])cc2)c2ncccc2c1` as the molecule, how does the Potency read?
The Potency was inconclusive [inhibitor, partial curve, poor fit].

Which “activity change, negative = inhibition” value does the source give for `CCOC(=O)c1ccoc1-c1ccc2ncnc(NCc3ccc(C)o3)c2c1` here?
Its value is inactive: 0.643%.

`O=C1CCCC2=C1C(c1ccn[nH]1)N=C(Nc1nc3ccccc3o1)N2` (stereo unspecified) was tested. Which Potency did it give?
Its Potency is inconclusive [inhibitor, partial curve].

For `CC(O)c1ccc(-c2ccc3ncnc(NCc4nccs4)c3c2)o1` (stereo unspecified), which Potency is on record?
The Potency was inconclusive [inhibitor, partial curve].

How did the “activity change, negative = inhibition” value turn out when `Cc1cc(C)nc(NC(=S)N2CCN(c3ccc(Cl)c(Cl)c3Cl)CC2)c1` was run?
The value was inactive: -8.99%.

Which Potency does the source give for `O=C1c2ccccc2NC(c2ccc(-c3cccc([N+](=O)[O-])c3)o2)N1O` (stereo unspecified) here?
Its Potency is inconclusive [inhibitor, partial curve, poor fit].

How did the Potency turn out when `NC(=O)C1CCN(c2nc(-c3ccccc3N)cs2)CC1` was run?
The Potency was inconclusive [inhibitor, partial curve].

With `Cc1ccc(OCCn2c(CCNC(=O)c3ccccc3C(F)(F)F)nc3ccccc32)cc1` as the molecule, how does the “activity change, negative = inhibition” value read?
Its value is inactive: 0.445%.

With `O=S(=O)(Nc1cc(O)cc2cccnc12)c1ccc(Cl)s1` as the molecule, how does the Potency read?
Its Potency is inconclusive [inhibitor, partial curve, poor fit].

`CCC(=O)NC(c1ccco1)c1cc(Br)c2cccnc2c1O` (stereo unspecified) was tested. Which Potency did it give?
The Potency was inconclusive [inhibitor, partial curve, poor fit].

`O=C1c2ccccc2NC(c2ccc(-c3ccc(C(F)(F)F)cc3)o2)N1O` (stereo unspecified) was tested. Which Potency did it give?
The Potency was inconclusive [inhibitor, partial curve, poor fit].

For `COc1cc(C2Nc3ccccc3C(=O)N2Cc2ccccc2)ccc1OCc1ccc(NC(C)=O)cc1` (stereo unspecified), which “activity change, negative = inhibition” value is on record?
The value was inactive: -0.0571%.

With `O=[S+]([O-])(Nc1ccc(C2CCNCC2)cc1)c1ccc(NCc2ccc(Br)cc2O)cc1` as the molecule, how does the Potency read?
Its Potency is inconclusive [inhibitor, partial curve, poor fit].

How did the Potency turn out when `OCc1cn(Cc2ccc(O)c3ncccc23)cn1` was run?
Its Potency is inconclusive [inhibitor, partial curve].

Which Potency does the source give for `Cc1ccc(NS(=O)(=O)c2ccc3[nH]c(=O)[nH]c3c2)cc1C` here?
The Potency was inconclusive [inhibitor, partial curve, poor fit].

`O=c1c2ccccc2nc2sc(Nc3ccc(Br)cc3)nn12` was tested. Which “activity change, negative = inhibition” value did it give?
Its value is inactive: -0.29%.

With `O=C(NCCCN1CCNCC1)c1cccc(-c2cc(O)c3ncccc3c2)c1` as the molecule, how does the Potency read?
The Potency was inconclusive [inhibitor, partial curve].

For `Cc1ccc(NS(=O)(=O)c2ccc3c(c2)n(C)c(=O)n3C)cc1C`, which “activity change, negative = inhibition” value is on record?
The value was inactive: -2.61%.

With `OCc1ccc(-c2ccc3ncnc(NCc4nccs4)c3c2)o1` as the molecule, how does the Potency read?
Its Potency is inconclusive [inhibitor, partial curve].

How did the “activity change, negative = inhibition” value turn out when `O=C1CCc2cc(S(=O)(=O)Nc3ccccc3-c3ccccc3)ccc2N1` was run?
The value was inactive: 1.77%.

With `O=C1c2ccccc2C(=O)N1c1cccc(O)c1` as the molecule, how does the “activity change, negative = inhibition” value read?
The value was inactive: 0.998%.

`FC(F)(F)c1cccc(N2CCN(C(=S)Nc3nccc4cccnc34)CC2)c1` was tested. Which Potency did it give?
The Potency was inconclusive [inhibitor, full curve].

`Oc1cccc2cc(N3CCCC3)cnc12` was tested. Which Potency did it give?
The Potency was inconclusive [inhibitor, partial curve].

Which Potency does the source give for `Cc1ccc(OCCn2c3c(c4ccccc42)CN(C(=O)C2CCCCC2)CC3)cc1` here?
Its Potency is inconclusive [inhibitor, partial curve, poor fit].

`Cc1cc(C2N=C(Nc3nc4ccccc4o3)NC3=C2C(=O)CCC3)n[nH]1` (stereo unspecified) was tested. Which Potency did it give?
The Potency was inconclusive [inhibitor, partial curve, poor fit].
